The target of experiment [1] is EGFP-PDE6D (human) (UniProt O43924). The experiment in a line: co-IP; visible immunoprecipitation (VIP) assay with three coexpressed proteins fused to EGFP, mChe and tBFP in HEK293T cells; EGFP fusion precipitated with GST-anti-GFP nanobody beads; beads observed under a fluorescence microscope; vector ratios ARL3:INPP5E:PDE6D 1:6:1 or ARL13B:INPP5E:PDE6D 4:5:1.
Experiment [2] has as its target T1, EGFP-INPP5E (UniProt Q9NRR6).
T1 sequence: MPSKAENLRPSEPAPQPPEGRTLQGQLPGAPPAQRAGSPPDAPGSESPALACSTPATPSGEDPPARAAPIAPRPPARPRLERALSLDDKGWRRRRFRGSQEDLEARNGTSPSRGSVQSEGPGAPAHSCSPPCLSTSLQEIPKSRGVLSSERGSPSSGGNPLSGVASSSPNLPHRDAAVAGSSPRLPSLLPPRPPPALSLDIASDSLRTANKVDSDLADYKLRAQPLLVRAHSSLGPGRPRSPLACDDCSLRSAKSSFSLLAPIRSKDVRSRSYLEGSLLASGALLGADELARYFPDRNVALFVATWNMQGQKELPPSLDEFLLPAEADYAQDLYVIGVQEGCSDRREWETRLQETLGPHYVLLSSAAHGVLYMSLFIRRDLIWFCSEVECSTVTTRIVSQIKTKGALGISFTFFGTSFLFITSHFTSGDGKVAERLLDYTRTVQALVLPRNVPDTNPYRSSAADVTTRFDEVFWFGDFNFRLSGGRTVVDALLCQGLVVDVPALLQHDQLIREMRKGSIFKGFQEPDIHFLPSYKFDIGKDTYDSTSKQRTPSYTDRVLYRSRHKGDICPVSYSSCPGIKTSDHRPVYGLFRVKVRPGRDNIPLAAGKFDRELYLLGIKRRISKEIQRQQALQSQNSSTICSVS
The experiment in a line: co-IP; visible immunoprecipitation (VIP) assay followed by immunoblotting (anti-mChe, anti-GFP); lysates of HEK293T cells coexpressing two fluorescent fusion proteins; EGFP fusion precipitated with GST-fused anti-GFP nanobody prebound to glutathione-Sepharose beads; lysis buffer 50 mM HEPES pH 7.4, 100 mM KCl, 1 mM DTT, 5 mM NaCl, 3 mM MgCl2, 0.5% Triton X100, 10% glycerol. In general terms: Immunoblotting shows a protein as a band on a membrane.

Chains of the proteins cited; added tags and fusions are not shown. Lines headed by an entry give the natural chain unless they say otherwise; changes in a name come on top.
UniProt Q3SXY8: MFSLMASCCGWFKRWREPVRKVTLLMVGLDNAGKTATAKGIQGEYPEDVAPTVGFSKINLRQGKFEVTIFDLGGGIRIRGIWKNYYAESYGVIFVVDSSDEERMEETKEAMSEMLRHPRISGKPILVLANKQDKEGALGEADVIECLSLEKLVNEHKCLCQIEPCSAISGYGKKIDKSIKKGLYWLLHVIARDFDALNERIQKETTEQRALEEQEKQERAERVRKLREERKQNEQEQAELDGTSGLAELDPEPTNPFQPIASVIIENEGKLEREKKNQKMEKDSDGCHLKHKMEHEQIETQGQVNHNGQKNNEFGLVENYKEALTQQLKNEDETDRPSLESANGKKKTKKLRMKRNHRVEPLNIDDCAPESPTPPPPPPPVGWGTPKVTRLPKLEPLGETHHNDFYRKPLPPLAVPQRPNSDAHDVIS
UniProt P36405: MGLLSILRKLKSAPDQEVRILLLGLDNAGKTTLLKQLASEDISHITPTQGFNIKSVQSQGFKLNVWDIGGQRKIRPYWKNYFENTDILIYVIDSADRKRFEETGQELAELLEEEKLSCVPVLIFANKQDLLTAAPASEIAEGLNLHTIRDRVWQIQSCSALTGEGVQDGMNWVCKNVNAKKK

The next experiment concerns the target T2, EGFP-fused INPP5E(1-626) (UniProt Q9NRR6).
T2 sequence: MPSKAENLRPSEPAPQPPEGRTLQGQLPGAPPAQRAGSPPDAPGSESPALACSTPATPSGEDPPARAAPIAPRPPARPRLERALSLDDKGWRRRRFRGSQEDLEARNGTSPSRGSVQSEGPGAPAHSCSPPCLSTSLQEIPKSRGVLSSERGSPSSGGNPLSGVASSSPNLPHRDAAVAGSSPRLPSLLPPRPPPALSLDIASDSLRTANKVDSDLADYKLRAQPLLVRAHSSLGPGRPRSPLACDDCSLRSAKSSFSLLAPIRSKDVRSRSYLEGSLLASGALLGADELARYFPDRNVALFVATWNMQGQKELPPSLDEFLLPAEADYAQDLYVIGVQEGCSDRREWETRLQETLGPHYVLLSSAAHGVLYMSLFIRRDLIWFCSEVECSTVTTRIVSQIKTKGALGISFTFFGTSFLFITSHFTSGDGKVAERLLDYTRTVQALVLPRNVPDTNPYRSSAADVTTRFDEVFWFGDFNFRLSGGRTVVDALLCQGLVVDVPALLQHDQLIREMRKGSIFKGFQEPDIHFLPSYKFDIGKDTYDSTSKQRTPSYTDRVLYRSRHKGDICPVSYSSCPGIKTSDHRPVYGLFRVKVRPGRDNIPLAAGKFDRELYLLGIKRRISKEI
The description is as above.

A further experiment deals with T3, EGFP-fused INPP5E(ΔCTS) (UniProt Q9NRR6).
T3 sequence: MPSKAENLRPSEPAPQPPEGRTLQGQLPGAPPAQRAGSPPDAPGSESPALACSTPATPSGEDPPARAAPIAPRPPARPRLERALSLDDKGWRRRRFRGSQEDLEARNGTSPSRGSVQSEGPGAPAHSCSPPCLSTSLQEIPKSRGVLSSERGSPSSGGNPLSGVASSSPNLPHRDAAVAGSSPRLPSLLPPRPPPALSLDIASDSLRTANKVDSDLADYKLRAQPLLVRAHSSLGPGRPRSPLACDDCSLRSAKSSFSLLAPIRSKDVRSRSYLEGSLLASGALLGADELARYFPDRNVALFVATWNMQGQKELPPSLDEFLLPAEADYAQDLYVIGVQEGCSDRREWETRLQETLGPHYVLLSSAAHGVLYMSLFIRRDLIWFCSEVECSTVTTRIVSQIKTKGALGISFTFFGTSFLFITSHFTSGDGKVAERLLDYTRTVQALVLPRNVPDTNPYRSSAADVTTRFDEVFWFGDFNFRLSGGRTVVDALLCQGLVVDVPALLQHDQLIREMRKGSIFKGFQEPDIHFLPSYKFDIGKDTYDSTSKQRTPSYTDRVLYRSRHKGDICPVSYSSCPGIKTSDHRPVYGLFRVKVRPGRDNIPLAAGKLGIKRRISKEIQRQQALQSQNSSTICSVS
The description is as above.

The target of another experiment is ARL13B(WT)-EGFP (UniProt Q3SXY8). The experiment in a line: co-IP; visible immunoprecipitation (VIP) assay with three coexpressed proteins fused to EGFP, mChe and tBFP in HEK293T cells; EGFP fusion precipitated with GST-anti-GFP nanobody beads; beads observed under a fluorescence microscope; vector ratios ARL3:INPP5E:PDE6D 1:6:1 or ARL13B:INPP5E:PDE6D 4:5:1.
In another experiment the target is ARL3-EGFP (human) (UniProt P36405). Described as above.
Experiment [3] deals with T1, EGFP-INPP5E. The experiment is described as above.
Experiment [4] addresses EGFP-PDE6D (human) (UniProt O43924). The experiment in a line: co-IP; visible immunoprecipitation (VIP) assay followed by immunoblotting (anti-mChe, anti-GFP); lysates of HEK293T cells coexpressing two fluorescent fusion proteins; EGFP fusion precipitated with GST-fused anti-GFP nanobody prebound to glutathione-Sepharose beads; lysis buffer 50 mM HEPES pH 7.4, 100 mM KCl, 1 mM DTT, 5 mM NaCl, 3 mM MgCl2, 0.5% Triton X100, 10% glycerol.

These are yes or no findings as the source states them, for the method shown. In cells and extracts the contact can be indirect. Some entries that bind do so weakly or less than the wild type. For some of these results: Where a sequence is shown, tags or fusion partners need not be part of it.

Regarding ARL13B-mChe (from UniProt Q3SXY8 1-428), the binding entry is “no binding” with EGFP-PDE6D (human) [1], “binds” with EGFP-INPP5E [2], “binds” with EGFP-fused INPP5E(1-626) and “no binding” with EGFP-fused INPP5E(ΔCTS).

As to mChe-PDE6D (from UniProt O43924 1-150), the results for the binding entry in the experiment with ARL13B(WT)-EGFP, with ARL3-EGFP (human) and in the experiment with EGFP-INPP5E [3] were “no binding”, “binds” and “binds”, respectively.

For the substance “mChe-fused ARL3(Q71L) (from UniProt P36405 1-182)”, the binding entry with EGFP-PDE6D (human) [4] is on record as “binds”.

“mChe-fused ARL3(T31N) (from UniProt P36405 1-182)”: in the experiment with EGFP-PDE6D (human) [4], the binding entry is “no binding”.

On to “mChe-fused wild-type (WT) ARL3 (from UniProt P36405 1-182)”, for which the values for the binding entry with EGFP-INPP5E [3] and with EGFP-PDE6D (human) [4] were “no binding” and “binds”, respectively.

Consider tBFP-PDE6D (from UniProt O43924 1-150), for which the results for the binding result with ARL13B(WT)-EGFP, in the experiment with ARL3-EGFP (human) and in the experiment with EGFP-INPP5E [3] were “no binding”, “binds” and “binds”, respectively.

Take “tBFP-fused ARL3 (from UniProt P36405 1-182)”: the binding entry with EGFP-INPP5E [3] is “no binding”.

In the case of “tBFP-fused ARL13B (from UniProt Q3SXY8 1-428)”, the binding entry with EGFP-PDE6D (human) [1] is “no binding”.

The record behind these values is publication PMC8496693.
